Measurements as given in PubChem BioAssay AID485294 (National Center for Advancing Translational Sciences (NCATS), 2010).
The campaign covered roughly 370,000 compounds. About 150 (0.041%) were called active. Inconclusive results, whose numbers are uncertain, are shown with a selection of clear calls. Calls come from the whole dose curve; as a rule, active = well fitted inhibition curve with a large enough effect; inconclusive = small, poorly fitted or top-dose-only effect; inactive = flat fitted curve, though single readings scatter. Potencies of inconclusive entries are left out as doubtful fits.

biological target: Beta-lactamase (Escherichia coli (strain K12)) (UniProt P00811); assay: qHTS Inhibitors of AmpC Beta-Lactamase (assay with detergent); conditions: AmpC hydrolysis of nitrocefin, absorbance 480 nm, 0.01% Triton; series mostly up to 114 µM; note: nearly all actives have a fitted effect of over 25% in size
Method: NIH Molecular Libraries Probe Production Network [MLPCN] NIH Chemical Genomics Center [NCGC] Assay Provider: Professor Brian Shoichet, UCSF Assay Overview: This aggregation profiling approach exploits the sensitivity of aggregate formation to detergent. Inhibition of b-lactamase is measured in the presence and absence of 0.01% Triton X-100. This particular assay had the prescence of 0.01% Triton X-100. See Pubchem assay "Promiscuous and Specific Inhibitors of AmpC Beta-Lactamase (assay without detergent)" for related screen. Compounds that inhibit only in the absence of detergent are considered likely promiscuous aggregators. A screen of 1,030 compounds was performed in Brian Shoichet's lab in 96-well format. AmpC activity was measured by following the absorbance at 480 nm. Nitrocefin is a chromogenic substrate: while nitrocefin is yellow (lmax 390 nm), the product of its hydrolysis is red (lmax 486 nm, 17,000 M-1). AmpC beta lactamase was provided by Shoichet Lab, UCSF.
Buffer: 20 mM phosphate buffer, pH 7.0 Triton X-100: No Detergent screen: 0.0001%, Detergent screen: 0.01%. Reagents/Controls: Buffer in columns 3 and 4 as negative control (no enzyme). 5.3 nM AmpC in columns 1, 2, 5-48. Titration of UCSF compound 9 control (from 10 mM, then 1:2) pin-transferred to column 2. Column 1 is neutral (100% activity). Assay Steps: Six uL of reagents were dispensed to 1536-well Greiner black clear bottom plates. Compounds and controls (23 nL) were transferred via Kalypsys PinTool. The plates were incubated for 15 min at room temperature, and then 2 uL of 800 uM solution of nitrocefin was added to start the reaction. The plates were immediately transferred to and read every 20 seconds for 4 min on ViewLux (Perkin-Elmer) High-throughput CCD imager using 480 nm absorbance protocol. During dispense, reagent bottles were kept submerged into 4 deg C water bath. Keywords: NIH Roadmap, MLSCN, MLI, MLSMR, qHTS, NCGC, AmpC Beta-Lactamase, Aggregation
Potency is the fitted concentration of half-maximal effect; tags give direction and shape of the fitted curve.

Sequence of UniProt P00811 (P00811 whole entry, looked up): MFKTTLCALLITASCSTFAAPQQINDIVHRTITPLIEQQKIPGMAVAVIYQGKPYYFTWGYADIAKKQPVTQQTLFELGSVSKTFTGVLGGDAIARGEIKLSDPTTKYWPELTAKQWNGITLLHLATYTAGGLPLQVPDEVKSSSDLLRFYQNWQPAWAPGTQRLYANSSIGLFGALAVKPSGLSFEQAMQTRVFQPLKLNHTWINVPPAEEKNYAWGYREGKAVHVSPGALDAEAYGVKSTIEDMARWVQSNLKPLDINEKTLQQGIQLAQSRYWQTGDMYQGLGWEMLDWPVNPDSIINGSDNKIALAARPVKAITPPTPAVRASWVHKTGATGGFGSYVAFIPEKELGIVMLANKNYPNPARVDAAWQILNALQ

Row | SMILES | Potency
1 | COc1cccc(NC(=O)Cn2c(=O)n(-c3ccccc3)c(=O)c3sccc32)c1 | inactive
2 | N#Cc1c(-c2ccccc2)nc(SCC(=O)N(c2ccccc2)c2ccccc2)[nH]c1=O | inconclusive [inhibitor, partial curve, poor fit]
3 | CC(=O)Nc1cccc(C(=O)NC2CCCc3c2cnn3-c2cc(C)cc(C)c2)c1 (stereo not given) | inconclusive [inhibitor, full curve, poor fit]
4 | CCC(C)NC(=O)c1ccccc1NC(=O)c1ccccc1N(C)S(C)(=O)=O (stereo not given) | inconclusive [inhibitor, partial curve, poor fit]
5 | CC(=O)N1c2ccc(S(=O)(=O)N3CCCCC3)cc2CC1C(=O)NCc1cccc(Cl)c1 (stereo not given) | inconclusive [inhibitor, partial curve]
6 | O=C(Nc1ccccc1N1CCOCC1)c1cccc([N+](=O)[O-])c1 | inconclusive [inhibitor, full curve, poor fit]
7 | CCN(CC)CCOC(=O)c1ccc(NC(=O)CNC(=O)c2ccccc2)cc1 | inconclusive [inhibitor, single point]
8 | CC(C)n1cc(NC(=O)c2cc(-c3ccccc3)on2)cn1 | inconclusive [inhibitor, full curve, poor fit]
9 | CN(Cc1cccc(F)c1)C(=O)CSc1nnnn1C1CC1 | inconclusive [inhibitor, full curve, poor fit]
10 | O=C(CCc1ccccc1)Nc1ccc2c(c1)OCCO2 | inconclusive [inhibitor, single point]
11 | O=C(C1COc2ccccc2O1)N1CCN(S(=O)(=O)c2cc(F)ccc2F)CC1 (stereo not given) | inconclusive [inhibitor, full curve, poor fit]
12 | COc1ccc(C(=O)NC(CCSC)C(=O)N2CCCCCC2)cc1 (stereo not given) | inconclusive [inhibitor, single point]
13 | COC(=O)[C@@]12CCCCN1[C@H](c1ccc(-c3ccc(C(C)=O)cc3)cc1)[C@H]1C(=O)N(C)C(=O)[C@H]12 | inactive
14 | COc1ccc(OC)c(S(=O)(=O)N2CCN(c3ccc(F)cc3)CC2)c1 | inconclusive [inhibitor, partial curve, poor fit]
15 | COC(=O)c1c(NC(=O)CN2CCCC(C)C2)c2c(C)cccc2n1C (stereo not given) | inconclusive [inhibitor, full curve, poor fit]
16 | CNC(=S)N1CCC(NC(=O)C(Cc2ccc(OC)cc2)NC(C)=O)CC1 (stereo not given) | inconclusive [inhibitor, full curve, poor fit]
17 | Cc1ccc(Cl)cc1N1CCN(C(=O)c2cn(C)c3ccc(S(=O)(=O)N4CCC(C)CC4)cc3c2=O)CC1 | inactive
18 | COc1ccc(Nc2nccc(-c3ccc([N+](=O)[O-])cc3)n2)cc1 | inactive
19 | C=CCn1c(=O)c2c(nc3n2CCN3c2cccc(Cl)c2C)n(C)c1=O | inconclusive [inhibitor, full curve, poor fit]
20 | CC1CCCC(NC(=O)COC(=O)Cc2ccccc2)C1C (stereo not given) | inconclusive [inhibitor, full curve, poor fit]

Row | SMILES | Potency
21 | CCN(CC)c1ccc(S(=O)(=O)N2CCOCC2)cc1NC(=O)COC(=O)/C=C/c1ccc(C)o1 | inconclusive [inhibitor, full curve, poor fit]
22 | CCOc1ccccc1NC(=O)CSc1nnc(Cc2cccn2C)n1-c1ccc(F)cc1 | inconclusive [inhibitor, full curve]
23 | CCCCC(=O)Nc1cccc(NC(=O)c2ccc(Br)o2)c1 | inactive
24 | Cn1c(=O)n(Cc2ccccc2)c(=O)c2c1nc(NCC1CCCO1)n2Cc1ccccc1 (stereo not given) | inconclusive [inhibitor, partial curve, poor fit]
25 | CCC(=O)NCCc1nc2ccccc2n1CC | inconclusive [inhibitor, full curve, poor fit]
26 | O=c1cc(N2CCCCC2)c(-c2ccccc2)nn1Cc1ccc(Cl)cc1Cl | inconclusive [inhibitor, full curve, poor fit]
27 | CCC(=O)Nc1sc(C(=O)Nc2ccccc2F)c(C)c1C(=O)OC | inactive
28 | O=C(NCc1cccc(Br)c1)c1ccc(-n2cnc3cccnc32)cc1 | inactive
29 | CC(=O)Nc1ccc(Br)cc1C(=O)C(=O)O | inconclusive [inhibitor, single point]
30 | COc1ccc(-c2sc(Nc3ccccc3)n[n+]2-c2ccc(F)cc2)c(C)c1C | inconclusive [inhibitor, partial curve, poor fit]
31 | COc1ccc(-n2c(N)c(Br)c(=O)[nH]c2=O)cc1 | inconclusive [inhibitor, full curve, poor fit]
32 | O=C(OCc1ccco1)c1ccc(S(=O)(=O)N2CCCCC2)cc1 | inactive
33 | Cc1ccc(Cl)cc1N1CCN(C(=S)NCCc2ccccc2)CC1 | inconclusive [inhibitor, full curve, poor fit]
34 | CCOc1ccc2cc(-c3nnc(Nc4ccccc4F)s3)c(=O)oc2c1 | inactive
35 | Cc1nnc2c(NCCC(C)C)nc3ccccc3n12 | inconclusive [inhibitor, single point]
36 | Cc1cccc(-c2nc3ccccc3c(=O)n2NC(=O)c2cccs2)c1 | inconclusive [inhibitor, full curve, poor fit]
37 | CCOC(=O)C1=C(C)Nc2ccccc2N/C1=N\S(=O)(=O)c1ccccc1 | inconclusive [inhibitor, single point]
38 | CCOc1ccc(NS(=O)(=O)c2ccc3c(c2)N(C(C)=O)CCO3)cc1 | inconclusive [inhibitor, partial curve, poor fit]
39 | CCN1CCN(C(=O)c2ccccc2N(Cc2ccccc2)S(=O)(=O)c2ccc(C)cc2)CC1 | inactive
40 | N#CC1=C(N)OC2=C(C(=O)CCC2)C1c1ccsc1 (stereo not given) | inconclusive [inhibitor, partial curve, poor fit]
